# Laboratory results published in PubChem BioAssay AID624173 (National Center for Advancing Translational Sciences (NCATS), 2012).
# Values joined by “and” are separate entries in the source; they are usually repeats but may differ in a detail not shown here. Equal entries are not always repeated. Among all 410,000 compounds or so, about 490 (0.12%) were called active. The shares of active, inactive and inconclusive entries below differ from those in the screen. The call rests on the fitted dose curve; in most records, active means well fitted inhibition curve with a large enough effect; inconclusive means small, poorly fitted or top-dose-only effect; inactive means flat fitted curve, though single readings scatter. Potencies beside an inconclusive call are fits to weak or partial responses and may not hold up.
# Biological target: pyruvate kinase (Trypanosoma brucei) (UniProt Q57TT1)
# Assay: qHTS of Trypanosoma Brucei Inhibitors; further: nearly all actives have a fitted effect of over 50% in size
# Settings: TbPYK enzyme, Kinase-Glo Plus ATP luminescence, 45 min; series mostly up to 76.8 µM; activity, negative = inhibition: at the top concentration
# Method in brief: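 TbPYK + substrate in 50 mM TEA pH 7.2, 100 mM KCl, 10 mM MgCl2, 0.05% BSA, 0.01% Tween-20; cpd pinned; ADP 130 uM final; 45 min RT; Kinase-Glo Plus 10 min; luminescence endpoint.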
# On the % scale 0 is the no-effect control and ±100 the full control effect; potency means the concentration at half of the fitted maximal effect; tags describe the fitted curve by direction and shape.
SMILES,Potency,"activity, negative = inhibition"
Cc1csc(NC(=O)c2cn3ccccc3n2)n1,"inconclusive: 35.5 µM [inhibitor, partial curve, poor fit]",
O=c1[nH]c(=O)c2[nH]c(=S)[nH]c2[nH]1,"inconclusive: 14.1 µM [inhibitor, partial curve, poor fit]",
Cc1ccc(NC(=O)c2ccccc2O)cc1,,inactive: -7.32%
O=C(Cn1cc2c(n1)CCCC2)Nc1ccccc1Br,,inactive: 1.27%
CCN=c1scc(C)n1/N=C/c1ccc(O)c(O)c1O,"inconclusive: 7.08 µM [inhibitor, partial curve, poor fit]",
COC(=O)C(C(C)C)N(Cc1cc(OC)cc(OC)c1)S(=O)(=O)CCl (stereo unspecified),"inconclusive: 28.2 µM [inhibitor, single point]",
CCOc1ccc(NC(=O)c2cccc(OC(=S)N3CCC(C)CC3)c2)cc1,,inactive: 2.56%
O=C(Oc1ccc(OC(=O)N2CCCCC2)cc1)c1ccccc1,,inactive: 1.81%
O=c1[nH]c(=S)n(Cc2ccco2)c(O)c1C=NCc1cccs1,"inconclusive: 35.5 µM [inhibitor, partial curve, poor fit]",
Nc1ncnc2c1ncn2[C@@H]1O[C@H](C(=O)N2CCN(Cc3ccccn3)CC2)[C@@H](O)[C@H]1O,,inactive: -4.25%
CN(C)CCCn1c(=O)n(Cc2ccco2)c(=O)c2c3c(sc21)CCCCC3,"inconclusive: 50.1 µM [inhibitor, single point]",
CCOC(=O)c1ccc(NC(=O)c2c(NCc3sccc3C)sc3c2CCCCC3)cc1,"inconclusive: 20 µM [inhibitor, partial curve]",
Nc1nnnn1/N=C/c1ccccc1C(F)(F)F,"inconclusive: 31.6 µM [inhibitor, single point]",
Cc1ccc(/C=C/C(=O)OC(C)C(=O)Nc2ccc(Cl)cn2)o1 (stereo unspecified),"inconclusive: 39.8 µM [inhibitor, partial curve, poor fit]",
NC(=O)Cn1c(=O)n(Cc2ccco2)c(=O)c2c3c(sc21)CCCCC3,"inconclusive: 22.4 µM [inhibitor, partial curve]",
O=C(NCCS(=O)(=O)N1CCN(c2ccccc2F)CC1)c1ccc(Br)o1,"inconclusive: 50.1 µM [inhibitor, single point]",
O=C1C2C(C(=O)N1/N=C/c1ccc(N3CCCCC3)o1)C1C=CC2C12CC2 (stereo unspecified),active: 25.1 µM,
COc1cccc(C(=O)Nc2cc3cc(OC)ccc3oc2=O)c1,,inactive: -2.86%
CC(=O)C(C(C)=O)C(NC(=O)c1cccnc1)(C(F)(F)F)C(F)(F)F,"inconclusive: 39.8 µM [inhibitor, single point]",
O=C1c2ccccc2C(Nc2ccc3c(c2)OCCO3)N1c1ccccn1 (stereo unspecified),,inactive: -0.666%
CCCC[N+]12CCC(CC1)C(=C(c1ccccc1)c1ccccc1)C2,"inconclusive: 50.1 µM [inhibitor, single point]",
O=C(NCC1CCCO1)c1ccc[nH]1 (stereo unspecified),,inactive: 4.06%
Cc1cccc(/C(N)=N/OC(=O)c2ccc3c(c2)OCO3)c1,"inconclusive: 15.8 µM [inhibitor, partial curve, poor fit]",
CCOc1ccccc1N1C(=O)CC(Sc2n[nH]c(-c3ccccc3)n2)C1=O (stereo unspecified),"inconclusive: 15.8 µM [inhibitor, partial curve, poor fit]",

SMILES,Potency,"activity, negative = inhibition"
c1cc2c3c(cccc3c1)NC1(CCCCC1)N2,"inconclusive: 44.7 µM [inhibitor, single point]",
N#C/C(=C\c1cc(O)c(O)c(O)c1)C(N)=O,"inconclusive: 5.01 µM [inhibitor, full curve]",
CC1CCCCC1NC(=O)CCCn1c(=S)[nH]c2ccsc2c1=O (stereo unspecified),"inconclusive: 28.2 µM [inhibitor, single point]",
Cc1cc(SCC(=O)Nc2ccccc2C)nc(C)n1,"inconclusive: 25.1 µM [inhibitor, partial curve, poor fit]",
CC1(C)CC(=O)C(=Cc2cn(CCC#N)nc2-c2ccc(F)cc2)C(=O)C1,"inconclusive: 22.4 µM [inhibitor, partial curve, poor fit]",
COC(=O)c1ccc2c(=O)n(Cc3ccc(C(=O)NCCCN4CCOCC4)cc3)c(=S)[nH]c2c1,"inconclusive: 28.2 µM [inhibitor, partial curve, poor fit]",
Cc1ccc(-n2c(-c3nn(C)c(C)c3Cl)n[nH]c2=S)cc1,"inconclusive: 7.94 µM [inhibitor, partial curve, poor fit]",
CC(C)OC(=O)C1C(=O)CC(C)(O)C(C(=O)OC(C)C)C1c1cccc(O)c1 (stereo unspecified),"inconclusive: 50.1 µM [inhibitor, single point]",
Cc1nn(-c2ccc(N3CCCC3)nn2)c(C)c1CCC(=O)NCc1ccccc1F,,inactive: 3.4%
COc1ccccc1-n1c(=O)c2c3c(sc2n2c(=S)[nH]nc12)CCC3,"inconclusive: 7.08 µM [inhibitor, partial curve]",
c1ccc(-c2nnc(SCc3nc4ccccc4[nH]3)n2Cc2ccco2)cc1,"inconclusive: 22.4 µM [inhibitor, partial curve, poor fit]",
OCCN1CCN(C(=S)c2ccc(Cl)cc2)CC1,"inconclusive: 17.8 µM [inhibitor, partial curve]",
CCOC(=O)N1CCN(C(=O)CSc2nnc(-c3cc(OC)ccc3OC)o2)CC1,"inconclusive: 35.5 µM [inhibitor, single point]",
Cc1c(Cl)sn(-c2ccc(Cl)cc2)c1=O,active: 4.47 µM,
Cc1ccc(-n2nc(C)c(/C=N/n3c(C)n[nH]c3=S)c2Cl)cc1,"inconclusive: 3.16 µM [inhibitor, full curve]",
CCCCOc1ccc(C(=O)N2CCCCCC2)cc1,,inactive: -2.62%
CO/N=C/c1ccc(Oc2ccc(C)cc2)nc1,,inactive: -3.34%
COc1ccc(N2CC(C(=O)Nc3nnc(SCC(=O)NCc4ccco4)s3)CC2=O)cc1 (stereo unspecified),,inactive: -11%
CCN1CCN(CC(=O)Nc2ccc(S(=O)(=O)N3C(C)CCCC3C)cc2)CC1 (stereo unspecified),,inactive: -0.867%
O=C(CCS(=O)(=O)c1cc2c(cc1Cl)NC(=O)CO2)NCCc1ccc(Cl)cc1,,inactive: -1.88%
Cc1ccc(C)c(OCCn2cc(/C=C(/C#N)C(=O)NCC3CCCO3)c3ccccc32)c1 (stereo unspecified),,inactive: -5.64%
COC1CC(C)C(OC)c2cc(O)cc(c2O)NC(=O)C(C)=CC=CC(C)C(OC(N)=O)C(C)=CC(C)C1OC (stereo unspecified),"inconclusive: 35.5 µM [inhibitor, partial curve, poor fit]",
CC(/C=C/c1ccccc1F)=N\NC(=O)c1ccc(Cl)cc1,,inactive: -24%
CCCC(C(=O)NCC1CCCO1)N(Cc1ccco1)C(=O)CNS(=O)(=O)c1ccc(F)cc1 (stereo unspecified),"inconclusive: 44.7 µM [inhibitor, single point]",

SMILES,Potency,"activity, negative = inhibition"
N#CC1=C2SCN(c3ccccc3)CN2C(=O)CC1c1cccs1 (stereo unspecified),"inconclusive: 5.62 µM [inhibitor, partial curve, poor fit]",
NC(=O)c1ccc(NC(=O)CSc2nnc(-c3cccnc3)n2Cc2ccco2)cc1,"inconclusive: 31.6 µM [inhibitor, single point]",
COc1ccc(CCNC(=O)CSc2nc(=O)n3cc(C)ccc3n2)cc1OC,,inactive: 0.136%
CC1CCCN(C(=O)c2cc(-c3ccco3)nc3ccccc23)C1 (stereo unspecified),"inconclusive: 28.2 µM [inhibitor, single point]",
CCOc1cccc(CNc2ccc(O)cc2)c1OCc1ccccc1Cl,"inconclusive: 3.98 µM [inhibitor, full curve] and inconclusive: 4.47 µM [inhibitor, full curve, poor fit]",
COc1ccc(CNC(=O)COC(=O)c2ccc(OCc3c(C)noc3C)cc2)cc1OC,"inconclusive: 31.6 µM [inhibitor, single point]",
COc1ccc(C/C(C)=N/NC(=S)Nc2ccc(C(C)C)cc2)cc1,"inconclusive: 3.98 µM [inhibitor, full curve]",
COC(=O)C1CCN(C2CC(=O)N(c3cc(C)cc(C)c3)C2=O)CC1 (stereo unspecified),,inactive: 2.98%
CCOc1ccc(NC(=O)CCS(=O)(=O)c2ccc3nc(C)sc3c2)cc1,,inactive: 0.995%
Cc1ccc(/C=C2/C(=O)N(c3ccccc3)C(=S)N2C)o1,"inconclusive: 20 µM [inhibitor, partial curve, poor fit]",
COc1ccc(NC(=O)CS(=O)(=O)c2cn(CC(=O)N3CCOCC3)c3ccccc23)cc1OC,"inconclusive: 31.6 µM [inhibitor, partial curve, poor fit]",
O=C(/C=C/c1cccc([N+](=O)[O-])c1)Nc1ccccc1N1CCOCC1,,inactive: -14%
COc1ccc(C(=O)Nc2ccccc2C(=O)O)cc1NC(=O)C(c1ccccc1)c1ccccc1,,inactive: 1.16%
COc1ccccc1C(=O)Nc1nc2ccccc2[nH]1,active: 10 µM,
O=c1oc2c(CN3CCOCC3)c(O)c(Cl)cc2c2c1CCCC2,,inactive: -2.14%
O=C(CCCn1c(=S)[nH]c2ccsc2c1=O)NCCc1ccccc1,"inconclusive: 35.5 µM [inhibitor, partial curve]",
Cc1cccc(C)c1OCc1cc(C(=O)N2CCN(C3CCCC3)CC2)no1,,inactive: -7.58%
CC(C)(C)c1ccc(-n2ncc3c2CCCC3NC(=O)C2=NNC(=O)CC2)cc1 (stereo unspecified),,inactive: 1.12%
O=C(CSc1ccc(-c2ccccc2)nn1)N1CCCCC1,"inconclusive: 28.2 µM [inhibitor, single point]",
CCOC(=O)c1c(S(=O)(=O)N2CCN(c3ccccc3OC)CC2)c(C)n(C)c1C,,inactive: -0.882%
O=C(CSC1=NCCS1)Nc1nc2c(s1)CCCC2,,inactive: 0%
COc1ccc(CCn2c(-c3ccc(C(C)(C)C)cc3)n[nH]c2=S)cc1OC,active: 14.1 µM,
COC(=O)C1=C(c2cccc(C#N)c2)C[C@@H]2CC[C@H]1N2C(=O)NC1Cc2ccccc2C1,"inconclusive: 14.1 µM [inhibitor, partial curve]",
